The source of these data is PubChem BioAssay AID463173 (ICCB-Longwood Screening Facility, Harvard Medical School, 2010).

In all, about 52,000 compounds went through this assay and about 4,300 (8.3%) were called active. Rule as the data show it: active = survival mostly below about 52% (no sharp cut-off); inactive = mostly above about 56%. This is one part of the list.

The experiment deals with DeltatarO mutant. Put plainly: S. aureus survival, RN4220 and DeltatarO strains – OD600, teichoic acid synthesis inhibitors, primary screen (AID 463173). As to conditions: S. aureus RN4220 wild type/DeltatarO growth, OD600, 18 h, stronger effect = lower value, screened at 18.75 µg/mL (by protocol).
Regarding `CCOC(=O)COc1ccc(C)cc1C(=O)c1ccn2nc(-c3ccc(C)cc3)cc2n1`, the survival is inactive: 77%.

On to `COC(=O)c1ccc(OCC2c3cc(OC)c(OC)cc3CCN2C(=O)C(C)C)cc1` (stereo not given), for which the survival is inactive: 112%.

Regarding `COCCNC(=O)c1ccc(CSc2nc3ccncc3n2Cc2ccccc2)cc1`, the survival is inactive: 91%.

On to `O=C(CSc1ncc2c(n1)-c1ccccc1N(Cc1ccccc1)S2(=O)=O)Nc1ccccc1`, for which the survival was active: -5%.

As to `COc1ccc(C)cc1NC(=O)NCc1ccc2c(c1)CCN2C(=O)c1ccccc1`, the survival was inactive: 105%.

With `Cc1ccc(NC(=O)Cn2c(=O)n(-c3ccccc3)c(=O)c3c4c(sc32)CCCC4)cc1`, the survival is inactive: 67%.

Take `C=Cc1ccc(CN2C(=O)N(c3ccc(CC)cc3)S(=O)(=O)c3ccccc32)cc1`: the survival was active: 6%.

In the case of `COc1ccc(C)cc1NC(=O)CSc1nc(=O)n(Cc2ccncc2)c2c1CCC2`, the survival was inactive: 123%.

On to `COc1ccc(C)cc1Nc1nc2cc(Cl)c(Cl)cc2nc1-n1nc(C)cc1C`, for which the survival is inactive: 84%.

With `Cc1ccc(C)c(CN2C(=O)c3ccccc3S(=O)(=O)c3ccc(C(=O)N4CCN(c5ccccn5)CC4)cc32)c1`, the survival is inactive: 63%.

In the case of `CCc1cccc(N2C(=O)N(CC(=O)NCc3cccc(OC)c3OC)c3ccccc3S2(=O)=O)c1`, the survival was inactive: 84%.

Consider `O=C(Cc1ccc(Cl)cc1)n1cc(Cl)cn1`, for which the survival was inactive: 103%.

On to `COc1cc(NC(=O)CN2C(=O)COc3ccc(S(=O)(=O)N4CCCCC4)cc32)cc(OC)c1`, for which the survival is inactive: 85%.

As to `CCOc1ccc(C(=O)NCC(c2ccc3c(c2)OCO3)N2CCN(c3ccccc3F)CC2)cc1` (stereo not given), the survival was inactive: 79%.

`COCCCNC(=O)C1CCN(Cc2nc(-c3ccc(OC)c(OC)c3)oc2C)CC1`: the survival was inactive: 88%.

With `Cc1ccc(NC(=O)Cn2c(=O)n(Cc3ccco3)c(=O)c3ccc(C(=O)NC4CCCC4)cc32)c(C)c1`, the survival was inactive: 101%.

Regarding `COc1ccc(Cn2nnc(C(=O)Nc3cc(OC)ccc3OC)c2N)cc1`, the survival was inactive: 60%.

In the case of `COc1ccc(OC)c(CCNC(=O)c2c(C)nn(-c3ccc(F)cc3)c2-n2cccc2)c1`, the survival was inactive: 83%.

As for `CCn1c(=O)cc(SCC(=O)NCCc2cc(OC)ccc2OC)c2ccccc21`, the survival is inactive: 61%.

On to `Cc1nnc(N2CCC(C(=O)NC3CCCCC3)CC2)c2nn(-c3ccc(Cl)cc3)c(C)c12`, for which the survival was inactive: 71%.

In the case of `CCOc1ccc(NC(=O)c2c(NCc3ccc(C)o3)sc3c2CCC(C)C3)cc1` (stereo not given), the survival was inactive: 97%.

Regarding `CCC(=O)N1CCc2cc(S(=O)(=O)CCC(=O)N3CCN(c4cc(C)ccc4C)CC3)ccc21`, the survival was inactive: 81%.

For `COc1cccc(NC(=O)CSc2nc3ccccc3n2C)c1`, the survival was active: 37%.

`Cc1ccc(Cn2nnc3c(=O)[nH]c(C4CCN(S(=O)(=O)c5ccc(S(=O)(=O)NC6CC6)cc5)CC4)nc32)cc1`: the survival was inactive: 95%.

Take `COc1ccc(OC)c(NC(=O)CN(C)S(=O)(=O)c2ccc3[nH]c4c(c3c2)CCCC4)c1`: the survival was inactive: 73%.

As for `COc1ccccc1CNCCSc1nnnn1C`, the survival was inactive: 57%.

`CCC(c1nnnn1Cc1ccco1)N(Cc1cccs1)Cc1cc2c(C)cc(C)cc2n2nnnc12` (stereo not given): the survival is inactive: 85%.

Regarding `Nc1c(-c2nc(-c3ccncc3)no2)nnn1CC(=O)Nc1ccccc1`, the survival was inactive: 85%.

Regarding `COc1ccc(C(=O)N(Cc2ccco2)Cc2ccco2)cc1`, the survival was inactive: 58%.

Regarding `COC(=O)c1c(N)n(-c2cc(Cl)cc(Cl)c2)c2nc3ccccc3nc12`, the survival was active: 44%.

Turning to `CN1CCC(OC(=O)COc2ccc(F)cc2)CC1`, the survival was inactive: 79%.

In the case of `Cc1noc(/C=C/c2ccccc2F)c1S(=O)(=O)N1CCC(C(=O)N(C)Cc2ccco2)CC1`, the survival is inactive: 94%.

With `COc1ccc(NC(=O)Cn2c(=O)n(CCc3ccccc3)c(=O)c3ccccc32)cc1`, the survival is inactive: 83%.

Regarding `COc1ccc2nc(NC(=O)c3cc(=O)c4ccccc4o3)sc2c1`, the survival is inactive: 50%.

In the case of `COc1cccc(CNS(=O)(=O)c2cc3c(cc2C)n(C)c(=O)c(=O)n3C)c1`, the survival was inactive: 113%.

With `O=C(c1cccc(Cl)c1)N1CCN(CCc2ccccn2)CC1`, the survival is inactive: 57%.

Turning to `CCCCNC(=O)c1c(C)oc2ncn(CC(C)C)c(=O)c12`, the survival is active: 6%.

Regarding `CCOc1ccc(NC(=O)Cn2nc(-c3ccncc3)ccc2=O)cc1`, the survival was inactive: 89%.

With `Cc1ccccc1OCC(=O)Nc1cc(-c2cccc(Br)c2)nn1-c1ccccc1`, the survival is inactive: 79%.

Consider `O=C(NCc1nc2cccnc2n1Cc1ccc(F)cc1)c1ccccc1C(F)(F)F`, for which the survival was inactive: 77%.

As to `CCc1ccc(NCc2cccn2-c2nnc(N3CCCCCC3)s2)cc1`, the survival is active: -6%.

Regarding `CCOc1ccc(NC(=O)CSc2nnc(CNC(=O)c3c(F)cccc3Cl)o2)cc1`, the survival was inactive: 96%.

Regarding `COc1ccc(OC)c(-c2cc(C(=O)Nc3cnn(Cc4ccc(Cl)cc4Cl)c3)no2)c1`, the survival was inactive: 64%.

`COc1ccc(S(=O)(=O)NCC(c2ccco2)N2CCOCC2)cc1C` (stereo not given): the survival was inactive: 80%.

Consider `COc1ccccc1N1CCN(S(=O)(=O)c2c(C)sc3ncn(CC(=O)Nc4ccccc4F)c(=O)c23)CC1`, for which the survival is inactive: 70%.

`CCOc1ccc(/C=C/c2nc3ccccc3n2S(=O)(=O)c2ccc(Br)cc2)cc1`: the survival was inactive: 59%.

Turning to `COc1cccc(NC(=O)Cn2c(=O)n(-c3ccc(Cl)cc3)c(=O)c3sc4ccccc4c32)c1`, the survival is inactive: 88%.

With `O=C(Cn1c(=O)nc(-c2ccccc2)c2cc(Cl)ccc21)NCCc1ccc(Cl)cc1`, the survival was inactive: 84%.

As to `CCn1c(=O)c(=O)n(CC)c2cc(N3CCCCC3)c(NC(=O)c3cccc(F)c3)cc21`, the survival is inactive: 83%.

Consider `CC(C)(C)c1nnc(NC(=O)CS(=O)(=O)Cc2ccccc2)s1`, for which the survival was inactive: 95%.

On to `CCOC(=O)CNc1nnc(SCC(=O)OCC)[nH]c1=O`, for which the survival is inactive: 71%.

As to `Cc1ccc2c(c1)N(C(=O)NCc1ccccc1)CCO2`, the survival is inactive: 79%.

In the case of `CCC(C)NC(=O)c1ccc2c(=O)n3c(nc2c1)CCCCC3` (stereo not given), the survival was inactive: 86%.

Regarding `Cc1ccc(NC(=O)Cn2nnc3sc(-c4ccccc4)cc3c2=O)cc1Cl`, the survival was inactive: 52%.

For `COC(=O)c1ccc(Cl)cc1NC(=O)N(Cc1ccc(C)o1)C1CCN(C(C)=O)CC1`, the survival is inactive: 95%.

For `COc1ccc(C(=O)NCC2(N3CCN(C)CC3)CCCCC2)cc1`, the survival was inactive: 69%.

Regarding `COc1ccc(C)cc1NS(=O)(=O)c1ccc2c(c1)n(C)c(=O)n2C`, the survival was inactive: 89%.

`CCC(CC)c1nn2c(=O)cc(COc3ccc(NC(=O)c4cccc(Cl)c4)cc3)nc2s1`: the survival was inactive: 79%.

As to `CCO/C(C)=N\Oc1cc(=O)oc2ccccc12`, the survival was inactive: 82%.

Take `COc1ccc(Cl)cc1NC(=O)CCC(=O)N1CCOc2ccccc21`: the survival is inactive: 60%.

For `Cc1nc2ccc(NC(=O)C3CC3)cc2c(=O)n1Cc1ccc(F)cc1`, the survival was inactive: 74%.

For `COc1ccc(NC(=O)Cn2c(=O)n(Cc3ccc(C(=O)NCc4ccccc4Cl)cc3)c(=O)c3ccccc32)cc1OC`, the survival was inactive: 97%.

On to `COc1ccc(NC(=O)CSc2nc(-c3ccco3)cc(C(F)(F)F)n2)cc1`, for which the survival was inactive: 86%.

Regarding `Cc1cc2c(N=NC(=O)C3CC34CCC4)c(O)[nH]c2cc1Br` (stereo not given), the survival is inactive: 57%.

Turning to `CC(C)CN1C(=O)c2ccc(Br)cc2C1=O`, the survival is inactive: 67%.

For the molecule `COC(=O)c1ccc(C(C)N(C)C)o1` (stereo not given), the survival was inactive: 93%.

As for `CCCN1Cc2cccc(C(=O)Nc3cc(C)cc(C)c3)c2C1=O`, the survival was inactive: 85%.

For the molecule `O=C(O)c1ccc(CO)o1`, the survival was inactive: 93%.

Turning to `CC(=O)Nc1ccc(C)cc1-c1nc2ccccc2n(CC(=O)Nc2cc(Cl)ccc2C)c1=O`, the survival is inactive: 78%.

Take `CCOC(=O)c1c(C)oc2ccc(N(C(=O)c3ccncc3)S(=O)(=O)c3ccc(CC)cc3)cc12`: the survival was inactive: 60%.

On to `COc1ccc(OC)c(S(=O)(=O)Nc2ccc3c(c2)n(C)c(=O)n3C)c1`, for which the survival was inactive: 115%.

For the molecule `O=C(CN1C(=O)COc2ccc(S(=O)(=O)NC3CCCC3)cc21)Nc1ccc(Cl)cc1F`, the survival was inactive: 78%.

Turning to `CCOC(=O)c1c(C)[nH]c(CCC(=O)Nc2cc(Cl)ccc2OC)c1C`, the survival was inactive: 94%.

Consider `CN(C)N1C(=O)CC(NCc2ccccc2)C1=O` (stereo not given), for which the survival was inactive: 95%.

Regarding `CCOC(=O)c1cccc(NC(=O)CCc2nc3cccnc3n2-c2ccccc2)c1`, the survival is inactive: 95%.

Turning to `CCOc1ccc(NC(=O)C2(c3cccs3)CCOCC2)cc1`, the survival was inactive: 84%.

With `Cc1cc(C)c2sc(NC(=O)c3ccc(S(=O)(=O)N4CCCC4)cc3)nc2c1`, the survival was active: 37%.

As to `O=S(=O)(NC1CCCC1)c1cccs1`, the survival is inactive: 71%.

Consider `COc1ccccc1C(=O)Nc1nc2nc(C)cc(=O)n2[nH]1`, for which the survival is inactive: 96%.

As for `CCOc1cccc(C(=O)N(Cc2ccc(C)o2)C2CCS(=O)(=O)C2)c1` (stereo not given), the survival was inactive: 96%.

`COc1cccc(CNC(=O)c2cc(-c3ccc(Cl)cc3)n[nH]2)c1`: the survival was inactive: 107%.

In the case of `CCC(CC)c1nn2c(=O)cc(COc3ccc(NC(=O)c4cccc(C)c4)cc3)nc2s1`, the survival is inactive: 120%.

Consider `O=C(CCC(=O)N1CCSc2ccccc21)Nc1ccc(Cl)cc1`, for which the survival was inactive: 68%.

For the molecule `COc1ccccc1CNS(=O)(=O)c1cc(Br)cc2c1N(C(=O)C1CC1)CC2`, the survival is inactive: 58%.

As for `COc1ccc(CNc2nc(-c3ccc(Cl)cc3)nn2S(=O)(=O)c2ccc(C)cc2)cc1`, the survival is inactive: 62%.

With `Cc1nc(N2CCOCC2)c2c(C(=O)NCc3ccc(Cl)cc3)c(C)oc2n1`, the survival was inactive: 107%.

Turning to `CN(C)S(=O)(=O)N(CC(=O)Nc1ccc(C(F)(F)F)cc1)c1ccccc1`, the survival was inactive: 70%.

For the molecule `Cc1ccc(OCCSc2nc3ccc(NC(=O)c4cccs4)cc3s2)cc1`, the survival is inactive: 88%.

Regarding `Cc1ccc(S(=O)(=O)N2CC=C(c3c(C)n(CC(=O)N4CCCC4)c4ccccc34)CC2)cc1C`, the survival is inactive: 72%.

Regarding `COc1ccc(C(=O)Oc2ccc3oc(=O)sc3c2)cc1`, the survival is inactive: 95%.
